The values that follow come from PMC12040169 (PLOS Biology, 2025).

Structures are written as SMILES. The list shows a part of the results.

For this assay, the system named is T1, C. trachomatis L2/434/Bu expressing GFP (CTL2-GFP).
T1 construct: L2/434/Bu GFP intracellular growth in HeLa cells
Also noted: species or system HeLa; C. trachomatis total inclusion area by high-content imaging, normalised to DMSO. The note with it: total inclusion area; 28.5 h, 10 µM; inhibitor. The gist of the method:
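High-content imaging followed the bulk GFP/resorufin measurement: fixed, Hoechst-stained cells were scored for GFP inclusions and host nuclei per well. Total inclusion area and count served as growth proxies, nuclei number as the viability proxy. MIC calculation matched the bulk assay.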
Take `O=C(CN(C1CCCCC1)S(=O)(=O)c1ccc(Br)cc1)NCc1ccccn1` [CBK264846]: the “% of control remaining” value is on record as 108.935.
Regarding `O=C(c1cc(F)cc(F)c1)N1CCC(n2cnc3cccnc32)CC1` [CBK283636], the “% of control remaining” value was 100.378.
Turning to `O=C(NCC1CCCN1)c1cc(C(=O)c2ccc(Cl)cc2Cl)c[nH]1` (stereo not shown) [CBK115923C], the “% of control remaining” value is 87.0285.
Turning to `COc1ccc(CCNC(=O)N(CCC#N)C2CCCCC2)cc1OC` [CBK156363], the “% of control remaining” value is on record as 68.3901.
As to `O=C(Cc1csc(NS(=O)(=O)c2ccc(-c3cccc([N+](=O)[O-])c3)cc2)n1)N1CCOCC1` [CBK200032], the “% of control remaining” value is reported as 76.9995.
The result for `Cc1ccc(S(=O)(=O)c2nc(NCCN3CCOCC3)sc2Cl)cc1` [CBK269615] reads 94.5158; that for `N#Cc1c[nH]nc1NS(=O)(=O)c1ccc(F)cc1` [CBK051018], 107.39; that for `c1nc(Nc2ccc3[nH]ccc3c2)cc(-c2ccc3c(c2)OCO3)n1` [CBK037761], 97.8485.
With `Cn1nnnc1SCC(=O)Nc1cccc2nsnc12` [CBK268973] the figure was 77.4311; with `CCS(=O)(=O)Nc1cc(N2CCNCC2)c2occc2c1` [CBK059429C], 68.6305; with `Cc1ccc(-c2nnc(C3CCCN(C(=O)C(C)C)C3)o2)s1` (stereo not shown) [CBK283058], 111.917.
With `CCOc1ccc(/N=c2\scc(-c3ccc(OC)c(Br)c3)n2CCc2ccccc2)cc1` [CBK263654B] the figure was 104.589; with `CCc1cc(Br)ccc1S(=O)(=O)Nc1cccc2cccnc12` [CBK045012], 78.9169; with `CC(=O)c1cnc2cc(-c3ccc(Cl)cc3)nn2c1C` [CBK051484], 110.067.
With `Sc1nnc(-c2ccncc2)n1C1CCCCC1` [CBK288421], the “% of control remaining” value is on record as 93.8441.
The result for `CCS(=O)(=O)c1ccc2oc([C@H]3CCN(C(=O)C4CCCCC4)C3)nc2c1` [CBK289381] reads 118.815; that for `O=C(O)C1C2C=CC3(CN(C4CCCCC4)C(=O)C13)O2` (stereo not shown) [CBK287248], 91.4655; that for `Cc1noc(C)c1C(=O)N1CCCCCC1c1cnn(C)c1` (stereo not shown) [CBK284974], 103.111.
`CCCNC(=O)C(C)Sc1nc2ccsc2c(=O)n1CC` (stereo not shown) [CBK296745]: the “% of control remaining” value was 88.8283.
With `CS(=O)(=O)c1ccc(-c2ccc3c(c2)OCCN(C2CCN(C(=O)CC(F)(F)F)CC2)C3)cc1` [CBK169260] the figure was 93.0642; with `Cc1ccn2cc(-c3ccc4c(c3)CC(C)N4S(C)(=O)=O)cc2c1` (stereo not shown) [CBK285253], 103.42; with `CN1CCCN(c2cncc(-c3cccs3)n2)CC1` [CBK065542], 87.4436.
With `O=C(CN1C(=O)[C@@H]2CCCN2C(=O)c2ccccc21)N1CCCC1` [CBK282434] the figure was 104.187; with `Cc1ccc(S(=O)(=O)Nc2nnc(C)s2)cc1` [CBK045486], 26.8159.
Turning to `Cc1ccc2[nH]cc(CCN3CCC(C(=O)NC(=O)Nc4ccccc4F)CC3)c2c1` [CBK034974], the “% of control remaining” value is listed as 79.6623.
Consider `C=CCn1c(-c2sc(NC(=O)CN3C(=C)c4ccccc4C3=O)nc2C)n[nH]c1=S` [CBK297909], for which the “% of control remaining” value amounted to 92.6167.
With `NS(=O)(=O)c1ccc(CNC(=O)c2cc(-c3ccncc3)nc3ccc(Cl)cc23)cc1` [CBK267770] the figure was 77.372; with `COc1cncc(-c2cccc(N3CCN(CCN(C)C)CC3)n2)c1` [CBK037024], 87.8799; with `CS(=O)(=O)Nc1nccnc1OC1CCN(CCCn2c(=O)[nH]c3ccccc32)CC1` [CBK084277], 88.892.
The result for `CC(CCO)CNS(=O)(=O)c1ccc(N2CCCC2=O)cc1` (stereo not shown) [CBK306358] reads 49.8568.
The result for `Cc1ccc(C2(CN3CCC(NC(=O)c4cc[nH]n4)CC3)CC2)cc1` [CBK285360] reads 85.0004; that for `O=C1OCCN1CCN1CCCN(Cc2ccc(F)cc2)CC1` [CBK304023], 17.5492; that for `c1coc(-c2nc3cnccn3c2NC2CCCCC2)c1` [CBK283498], 110.809.
Regarding `Cc1nc(NC(=O)CCN2C(=O)COc3ccccc32)sc1-c1n[nH]c(=S)n1C` [CBK295362], the “% of control remaining” value came out at 104.875.
The result for `COc1ccc([C@@]23CC[C@@H](NC(=O)c4ccc(F)c(C(F)(F)F)c4)C[C@@H]2N(C)CC3)cc1OC` [CBK074967T] reads 80.2747.
As to `COc1cc(N2CCCNCC2)ncn1` [CBK085485C], the “% of control remaining” value was 85.0784.
With `Cn1c(=O)n(CC(=O)O)c(=O)c2c1nc(Br)n2Cc1ccccc1` [CBK026617] the figure was 101.661; with `CC1CCc2nn(CCNC(=O)Cc3cccs3)c(=O)cc2C1` (stereo not shown) [CBK284465], 94.4952; with `O=C(NCc1ccccc1)N1CCC(n2cnc3cccnc32)CC1` [CBK282281], 85.7059.
The result for `CCn1cc(C(=O)O)c(=O)c2cnc(N3CCN(C(=S)Nc4ccc5c(c4)OCCO5)CC3)nc21` [CBK267895] reads 106.362.
